Laboratory results: the RNAGym collection of RNA variant scans (doi:10.7554/elife.90254)
Read counts are not given, so values of variants with three or more changes are uncertain.

B1: LINE1-mini (parent)
chain: GGCAGAGCUCAACACAGCGUGGCAAAGUGGCUGUGGCUAGACUGCC

Variants of: B1
Assay: self-cleavage, relative activity (ratio to wild type); higher = more cleavage; in vitro, sequencing; the parent is a self-cleaving ribozyme

Which self-cleavage does the source give for GGCAGAGCUCAACACAGCGUGGCGAAAUGGCUGUGGCUGGACUCCC [A24G G27A A39G G44C] here?
Its self-cleavage is 0.05.

With GGCAGAGCUCAACACAGCGUGGCGAAGUGGCUGUGCAUAGACUGCC [A24G G36C C37A] as the variant, how does the self-cleavage read?
Its self-cleavage is 0.08.

With GGCAGAGCUCAACACAGCGUGGCACAGUGGAAGUGACUAAACUGCC [A25C C31A U32A G36A G40A] as the variant, how does the self-cleavage read?
The self-cleavage was 0.03.

Which self-cleavage does the source give for GGCAGAGCUCAACACAGCGUGGCUAAGUGGCUGUGGCUUUACUGCC [A24U A39U G40U] here?
The self-cleavage was 0.12.

For GGCAGAGCUCAACACAGCGUGGCUAACUGGCUGCGGCUAGACUGCC [A24U G27C U34C], which self-cleavage is on record?
Its self-cleavage is 0.06.

Which self-cleavage does the source give for GGCAGAGCUCAACACAGCGUGGCGAAGUGGCGGUGGCUAGCCUGCG [A24G U32G A41C C46G] here?
Its self-cleavage is 0.01.

Which self-cleavage does the source give for GGCAGAGCUCAACACAGCGUGGCUAAGUGGCUGUGGCUGGACUGCG [A24U A39G C46G] here?
Its self-cleavage is 0.03.

Which self-cleavage does the source give for GGCAGAGCUCAACACAGCGUGGUAAAGUCGCUGUUGCUAGACUGGC [C23U G29C G35U C45G] here?
Its self-cleavage is 0.04.

With GGCAGAGCUCAACACAGCGUGGCUGAGUGGCUGUGGCUAUACUGUC [A24U A25G G40U C45U] as the variant, how does the self-cleavage read?
Its self-cleavage is 0.17.

With GGCAGAGCUCAACACAGCGUGGCCCAUUGGCUGUGGCUAGACUGCC [A24C A25C G27U] as the variant, how does the self-cleavage read?
The self-cleavage was 0.17.

With GGCAGAGCUCAACACAGCGUGGCGAAGUUGCUGUGGCAAAACCGCC [A24G G29U U38A G40A U43C] as the variant, how does the self-cleavage read?
Its self-cleavage is 0.02.

Which self-cleavage does the source give for GGCAGAGCUCAACACAGCGUGGCCAAGUGGCUGUAGCUAAACUGCC [A24C G35A G40A] here?
The self-cleavage was 0.04.

With GGCAGAGCUCAACACAGCGUGGUAAAGUGGCAGUGGCUAAACUGCC [C23U U32A G40A] as the variant, how does the self-cleavage read?
The self-cleavage was 0.06.

With GGCAGAGCUCAACACAGCGUGGCUAAGUGACUGGGGCUCGGCUGCC [A24U G30A U34G A39C A41G] as the variant, how does the self-cleavage read?
Its self-cleavage is 0.

With GGCAGAGCUCAACACAGCGUGGCUAAGUGGCUGAGGUUAGACUGCC [A24U U34A C37U] as the variant, how does the self-cleavage read?
The self-cleavage was 0.04.

For GGCAGAGCUCAACACAGCGUGGCUAAGUGGGUGUGGCUCGACUGAC [A24U C31G A39C C45A], which self-cleavage is on record?
Its self-cleavage is 0.03.

With GGCAGAGCUCAACACAGCGUGGCACAGUGGGUGUGGCUAGACUUGC [A25C C31G G44U C45G] as the variant, how does the self-cleavage read?
The self-cleavage was 0.03.

For GGCAGAGCUCAACACAGCGUGGUAAAUUGGCCGUGGCUAGACUGCC [C23U G27U U32C], which self-cleavage is on record?
The self-cleavage was 0.31.

With GGCAGAGCUCAACACAGCGUGGCCAAGUGGCUCUGGUCAGACUGCC [A24C G33C C37U U38C] as the variant, how does the self-cleavage read?
The self-cleavage was 0.07.

With GGCAGAGCUCAACACAGCGUGGCGAUGUGGCUGUUGCUAGACUGCC [A24G A26U G35U] as the variant, how does the self-cleavage read?
Its self-cleavage is 0.08.

For GGCAGAGCUCAACACAGCGUGGCUCAGCGGCUGUGGCUAGACUACC [A24U A25C U28C G44A], which self-cleavage is on record?
Its self-cleavage is 0.

For GGCAGAGCUCAACACAGCGUGGCUAAGUGGCUGUGGCUCGAUUGUC [A24U A39C C42U C45U], which self-cleavage is on record?
The self-cleavage was 0.04.

Which self-cleavage does the source give for GGCAGAGCUCAACACAGCGUGGCGAAGAGGCUGAGGCUAGACUGCC [A24G U28A U34A] here?
The self-cleavage was 0.04.

For GGCAGAGCUCAACACAGCGUGGCCAAGUGACUGUGGCUGGACUGCC [A24C G30A A39G], which self-cleavage is on record?
Its self-cleavage is 0.1.

With GGCAGAGCUCAACACAGCGUGGCUAAGUGGCUGUGGCUAGACCGCA [A24U U43C C46A] as the variant, how does the self-cleavage read?
Its self-cleavage is 0.02.

For GGCAGAGCUCAACACAGCGUGGCGAAGUGACGGUGGCUAGACUGAC [A24G G30A U32G C45A], which self-cleavage is on record?
Its self-cleavage is 0.28.

Which self-cleavage does the source give for GGCAGAGCUCAACACAGCGUGGUAAAGUAGCUGUGGCUAGACUGCA [C23U G29A C46A] here?
Its self-cleavage is 0.28.

With GGCAGAGCUCAACACAGCGUGGUAAAUUGGCUGUGGCUAGACUACC [C23U G27U G44A] as the variant, how does the self-cleavage read?
Its self-cleavage is 0.15.

Which self-cleavage does the source give for GGCAGAGCUCAACACAGCGUGGCUAAGUGGCUGUGGUUAGACUGGC [A24U C37U C45G] here?
The self-cleavage was 0.05.

For GGCAGAGCUCAACACAGCGUGGCUAAGUAGCUUUGGCUAGACUGUC [A24U G29A G33U C45U], which self-cleavage is on record?
Its self-cleavage is 0.05.

For GGCAGAGCUCAACACAGCGUGGCUAAGUAGGUGUGGCUAGACUGCC [A24U G29A C31G], which self-cleavage is on record?
Its self-cleavage is 0.07.

With GGCAGAGCUCAACACAGCGUGGCUAAGUGGCUGUCGCAAGACUGCC [A24U G35C U38A] as the variant, how does the self-cleavage read?
Its self-cleavage is 0.02.

With GGCAGAGCUCAACACAGCGUGGCACAGUGGUUGUGGCUAGACUGUC [A25C C31U C45U] as the variant, how does the self-cleavage read?
The self-cleavage was 0.32.

For GGCAGAGCUCAACACAGCGUGGCUAAGUGGCUGUAGCUAGACUGUC [A24U G35A C45U], which self-cleavage is on record?
Its self-cleavage is 0.06.

Which self-cleavage does the source give for GGCAGAGCUCAACACAGCGUGGUAAAGUGGCUGGGUCUAGACUGCC [C23U U34G G36U] here?
The self-cleavage was 0.05.

For GGCAGAGCUCAACACAGCGUGGUAAAUUGGCUGUGGAUAGACUGCC [C23U G27U C37A], which self-cleavage is on record?
The self-cleavage was 0.03.

For GGCAGAGCUCAACACAGCGUGGCUAAGUGCCUGUGGCUAUACUGCC [A24U G30C G40U], which self-cleavage is on record?
Its self-cleavage is 0.22.

For GGCAGAGCUCAACACAGCGUGGUAAAGUGUCUGUGGCUAGAAUGCC [C23U G30U C42A], which self-cleavage is on record?
The self-cleavage was 0.08.

For GGCAGAGCUCAACACAGCGUGGCUAAGUGGCUGUGGCUAGUCUGCG [A24U A41U C46G], which self-cleavage is on record?
The self-cleavage was 0.06.

With GGCAGAGCUCAACACAGCGUGGCCAAGUCGAUGAGGCUAGACUGCC [A24C G29C C31A U34A] as the variant, how does the self-cleavage read?
The self-cleavage was 0.08.

With GGCAGAGCUCAACACAGCGUGGCCAAGUGGCUGUCGGUAGCCUGCC [A24C G35C C37G A41C] as the variant, how does the self-cleavage read?
Its self-cleavage is 0.01.

With GGCAGAGCUCAACACAGCGUGGCUAAGCGGCUGUGGCUAGCCUGCC [A24U U28C A41C] as the variant, how does the self-cleavage read?
The self-cleavage was 0.03.

For GGCAGAGCUCAACACAGCGUGGCUAAGUGGGUGUGGCUAGAUUGCC [A24U C31G C42U], which self-cleavage is on record?
Its self-cleavage is 0.01.

With GGCAGAGCUCAACACAGCGUGGUAAAGUUGCUGUGGUUAAACUACC [C23U G29U C37U G40A G44A] as the variant, how does the self-cleavage read?
Its self-cleavage is 0.03.

Which self-cleavage does the source give for GGCAGAGCUCAACACAGCGUGGUAAAGUGGCUGUGGCUAUACAGCC [C23U G40U U43A] here?
Its self-cleavage is 0.05.

Which self-cleavage does the source give for GGCAGAGCUCAACACAGCGUGGCCAAGUUGCUGUGUCUAGACUGCC [A24C G29U G36U] here?
Its self-cleavage is 0.03.

For GGCAGAGCUCAACACAGCGUGGCCAAGUGGCAGUGGCUAGACUGCA [A24C U32A C46A], which self-cleavage is on record?
Its self-cleavage is 0.06.

Which self-cleavage does the source give for GGCAGAGCUCAACACAGCGUGGCUAAGUGGCAGUGGCUAGUCUGUC [A24U U32A A41U C45U] here?
The self-cleavage was 0.05.

Which self-cleavage does the source give for GGCAGAGCUCAACACAGCGUGGCACAGUGGCUGUGGCUGGACUCCC [A25C A39G G44C] here?
Its self-cleavage is 0.01.

With GGCAGAGCUCAACACAGCGUGGUAAAGUGGCUGUAUUUAGACUGCC [C23U G35A G36U C37U] as the variant, how does the self-cleavage read?
The self-cleavage was 0.03.

With GGCAGAGCUCAACACAGCGUGGUAAAGUGGGUGUGGCUAGACCGCC [C23U C31G U43C] as the variant, how does the self-cleavage read?
Its self-cleavage is 0.03.

For GGCAGAGCUCAACACAGCGUGGCGAUGUCUCUCUGGCGAGACUGCC [A24G A26U G29C G30U G33C U38G], which self-cleavage is on record?
The self-cleavage was 0.01.

Which self-cleavage does the source give for GGCAGAGCUCAACACAGCGUGGCGAAGCGGCUGUGUCAAGACUGCC [A24G U28C G36U U38A] here?
The self-cleavage was 0.04.

Which self-cleavage does the source give for GGCAGAGCUCAACACAGCGUGGCCAAGUGACUGUGGUUAGACUGCC [A24C G30A C37U] here?
Its self-cleavage is 0.12.

With GGCAGAGCUCAACACAGCGUGGCCAAGUGGCUGUGGCAUUACUGCG [A24C U38A A39U G40U C46G] as the variant, how does the self-cleavage read?
The self-cleavage was 0.02.

For GGCAGAGCUCAACACAGCGUGGCUAACUGGCUGUGGCUAGAUUGCC [A24U G27C C42U], which self-cleavage is on record?
Its self-cleavage is 0.44.
